Measurements: the supplement of paper PMC11417369
± gives the standard deviation of the averaged measurements. The list shows a part of the results.

The sequences below were run on PfAP2-G AP2 domain (GST-tagged) (assay: gcPBM binding intensity (ln(normalized median fluorescence intensity)); higher = stronger DNA binding).
Method in brief: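 Using an Agilent 4 × 180k array, primer-extended double-stranded 36-bp intergenic genomic probes and negative controls were exposed for 1 h to GST-fused P. falciparum DNA-binding domains expressed in E. coli. Binding was carried out in 1× PBS with 1% milk, 0.2 mg/ml BSA, 0.5% salmon testes DNA and 0.03% Triton X-100, and protein was detected with Alexa488 anti-GST antibody and a 488 nm scan. Binding intensity is the highest Masliner-normalised natural-log median intensity across replicate spots of either probe orientation.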

| Sequence | gcPBM binding intensity (ln) |
| --- | --- |
| CACATACAGACATACACACACATATATATTAATATA [CACACA_site546] | 10.3 ± 0.3 |
| ATATTGGAGCACAACACACACAAGTATATATATGGA [CACACA_site1546] | 10.4 ± 0.39 |
| AAATAGCCAAAAATCATGCACACCTAAAAAAAAAAA [CACACA_site2572] | 10.1 ± 0.17 |
| TATATATATATATATTGTACATATATTATTATATAT [XGTACX_site7447] | 10.9 ± 0.53 |
| TTAATTTACATGAACTGTACATAACATTTTTTTAAA [XGTACX_site4672] | 11 ± 0.59 |
| ATCAAAATATTTATATGTACATATTAAAAATATAGA [XGTACX_site725] | 11.2 ± 0.79 |
| TATATAATAAAAAAAAGTACTTGGACAATATTATTT [XGTACX_site2802] | 11.4 ± 0.84 |
| TAATAAAGTGAATAATGTACATTTTATTTATTATAT [XGTACX_site6614] | 10.9 ± 0.41 |
| ATTATATATCCCTATTCACACATGTATTATATAAAT [CACACA_site5486] | 10.2 ± 0.12 |
| GAAAAATTAAAAATAACACACACATATATATATTTA [CACACA_site8896] | 9.83 ± 0.071 |
| AAGGAAATATAATATACACACATAAGTGTACTTATA [CACACA_site4030] | 11.6 ± 1.1 |
| CCTATATTAAAACAAGCACACAATCGCATAATATCC [CACACA_site9052] | 10.12 ± 0.014 |
| TCAGTAATACTTGAATGTACTTATATTGTTTGTTTG [XGTACX_site6449] | 11.2 ± 0.69 |
| AAAAAAATTAAATGTACACACACCTTAAACAATGTC [CACACA_site1855] | 11.4 ± 0.73 |
| TTAACATATTTGTTAGTGCATTTTGATATTACACAT [GTGCAC_site9978] | 9.895 ± 0.021 |
| AATGCCTTGTTGAGGTGTACTGAATGTTATTTTAAT [XGTACX_site3255] | 11.1 ± 0.59 |
| TTTTTTTAAAGAATTATCATAAAATGATTGCATCAT [XGTACX_negctrl_site141] | 9.545 ± 0.007 |
| ATAAATAAATAAATAAATAAATAAATAAATATATAT [CACACA_negctrl_site1728] | 9.545 ± 0.049 |
| ATTTATTTTATATGTTGTACAAACATTTTAAAACAT [XGTACX_site6919] | 11.2 ± 0.62 |
| TCTTTTTCTTGACGAGTGCAAAAATTGTGTTTGAAA | 10.3 ± 0.32 |
| CTAATATCTGTATGCACACACAATAAATACATATTT [CACACA_site5797] | 10.09 ± 0.042 |
| TGTGTATTTATAAATACACACCAAATGTTAATATAT [CACACA_site6904] | 10.2 ± 0.21 |
| GTAAAATGATATAAATGTACATAATATATATATGTC [XGTACX_site4049] | 10.9 ± 0.45 |

| Sequence | gcPBM binding intensity (ln) |
| --- | --- |
| ATTTTATCTTTAAACTGTACGTATTAATATGTAGAA [XGTACX_site3077] | 11.7 ± 1.1 |
| ATAAAAATATTATAAGCACACATATATATATATATA [CACACA_site8781] | 10.2 ± 0.58 |
| AGTATACATATATATACACACATATATATATATATA [CACACA_site300] | 10.1 ± 0.52 |
| TGTCATATTATAAATTGTACAAATAGTATAATTATT [XGTACX_site581] | 11 ± 0.61 |
| TTATGCCTTTAATATACACACTAATATTTTTTTGGC [CACACA_site5171] | 9.895 ± 0.021 |
| AATTTTTTTTTTAGACGTACAAGAAAAAACAAAAAA [XGTACX_site4990] | 11.7 ± 0.75 |
| TATATGAAGTACACAATACACACTAATTATATATAA [CACACA_site2608] | 11.5 ± 1 |
| AACTATAAAAATTTTACACACTGTTTTTAAATAATG [CACACA_site5928] | 10.085 ± 0.007 |
| TTATGTTCTTTAAAACCACACACCCCCCAACCCCCC [CACACA_site8742] | 11.6 ± 0.87 |
| TATATATGCATATACATACACACATAACACATACGT [CACACA_site3833] | 10.03 ± 0.028 |
| AATGTTTTATTTTGAAGTACATTTAAGAATTTTTTA [XGTACX_site7814] | 11.2 ± 0.67 |
| ATATAATAATAAGGCACACAAATTAAAATATAAAAA [CACACA_site3710] | 10.2 ± 0.16 |
| TATGAAATTATAATTACACACAGGAAAATAAAATGT [CACACA_site1517] | 10.3 ± 0.15 |
| TAAATTTTTTCCTCCTGTACTTATTATATTTTTTTG [XGTACX_site1572] | 11.4 ± 0.9 |
| ATTAATTCGTTTTGTACACACATAATGAGTAATTTA [CACACA_site7118] | 11.2 ± 0.78 |
| TTTTGACCATATCTGTTGCACTTTTGTGCTATTCGA | 10.6 ± 0.41 |
| CATTATGTCGTAAATACACACATACATATACATACA [CACACA_site8383] | 10.3 ± 0.23 |
| AAGGATCACAGACAAACACACATATATATATATATA [CACACA_site4469] | 10.1 ± 0.38 |
| AAATAATTTGTTGACACACACACACCCATACAGATA [CACACA_site5291] | 10.5 ± 0.38 |
| AGCCAAACCTTAAATTTAGCAATAAGTTTACAGGTC [CACACA_negctrl_site360] | 9.68 ± 0.23 |
| ATTAAAAGTTTATACAAATAAAAAACAAAACAAAAA [CACACA_negctrl_site1030] | 10.1 ± 0.33 |
| ATAAAAATTGATTATACACACGCGCCCAGACAACAA [CACACA_site5870] | 11.1 ± 0.49 |
| ATATAGATGCATAATACACACATCAGATAATTAACC [CACACA_site6871] | 10.03 ± 0.078 |

| Sequence | gcPBM binding intensity (ln) |
| --- | --- |
| TTTTTTTTTTTTTTTTGTACTCATATCTACTATCAT [XGTACX_site274] | 11.2 ± 0.97 |
| ACAAGGTTTACGGGTAGTACAAATTTTTGAACATCT [XGTACX_site4739] | 11.5 ± 0.69 |
| TTTTTTCTTTTTTTTTGTACATATAATATTTATGTT [XGTACX_site302] | 10.9 ± 0.42 |
| ATATATATATGTATATGTACATATATATGGTAACTC [XGTACX_site681] | 11.2 ± 0.73 |
| AAAAGAAAAAAAAAAAAAAAAAAAATTAAAATATAA [CACACA_negctrl_site17] | 9.37 ± 0.057 |
| TAATGGTTATCACTAACATGCAGTAATATTATATAG [TGCATGCA_site176] | 9.885 ± 0.021 |
| TCGTATTTAAAATGTAGTACATAATTTGAAAAATAA [XGTACX_site5832] | 11.6 ± 0.83 |
| ATATAATATTTATATGCACACTTTTCTATATATAAG [CACACA_site6100] | 10.05 ± 0.057 |
| TAAAATATTATTTATTTACACACCAATCTTCTTTTC [CACACA_site9320] | 9.815 ± 0.078 |
| ATAAGAAAAAGACACACACACAAAAAAAAAAAAAAA [CACACA_site2828] | 9.95 ± 0.49 |
| TAAATAAATTATTTTCGTACTTATTTATTTTAATTA [XGTACX_site283] | 10.8 ± 0.6 |
| CTTAGGTTAAAAGTGTGTACATAAAAACATATATAA [XGTACX_site2213] | 11.5 ± 0.87 |
| TACTATTATAAATATGTGCACTTCAATAATATACTA | 10.3 ± 0.27 |
| AAGTTATTGATATATACACACAAATATAAATAATAT [CACACA_site6695] | 10.05 ± 0.085 |
| AATACATATCAAAGCTGTACAAAGTAAATTTTACTT [XGTACX_site3525] | 10.8 ± 0.59 |
| TTCAATAGGTATAATTGTACTTAATAATATATTGTT [XGTACX_site8363] | 11.1 ± 0.73 |
| AAAAAAAAAAAACACACACACAAATACAAATGGTAA [CACACA_site1720] | 9.995 ± 0.021 |
| AAAAAAAAAATATACACACACATATAAATATAAATA [CACACA_site7574] | 9.855 ± 0.007 |
| AAATAAAAAACAGTGGCACACATTATGTATCCACCT [CACACA_site3756] | 10.5 ± 0.26 |
| TTAAAGTAGAGAAAATGTACATTTTATTAACACAAT [XGTACX_site6369] | 10.9 ± 0.45 |
| TAAATTCCTACATACGCATGTACATTAAAATTTTAA [TGCATGCA_site215] | 11.1 ± 0.69 |
| AAAATAAAAAGAAAAAGAAAAAAGGGGGGGTAGGGG [CACACA_negctrl_site1048] | 11.4 ± 0.88 |
| CTTTAAGTTATATGAAGTACAATTTAAAAAAATGAA [XGTACX_site358] | 11.2 ± 0.75 |

| Sequence | gcPBM binding intensity (ln) |
| --- | --- |
| TACAGATACAGATACACACACACACCGAAATAAATA [CACACA_site4865] | 10.2 ± 0.4 |
| ATACATTCAATGAAATGTACGTTTATTTACAGAAGA [XGTACX_site2999] | 11.2 ± 0.76 |
| TATATATACATACATACACACATATATATATATATT [CACACA_site4110] | 10.02 ± 0.028 |
| GAAAGGATATATATATATATATATATAATACATTTC [GTGCAC_negctrl_site677] | 9.455 ± 0.007 |
| ACATATAATATATAATGTACAAAATTGTTAACAATA [XGTACX_site3798] | 10.7 ± 0.39 |
| GATGAAAATAGAAATACACACTAAAAAATAAAATTA [CACACA_site4764] | 10.02 ± 0.099 |
| TGCATACTTTTGTAAGTGCATAAAATCGTACCATGC | 10.8 ± 0.52 |
| GAAATAATTCGATGTGCATGTAACGTTTCCCCAAAG [TGCATGCA_site122] | 10.3 ± 0.22 |
| AAGAGAAAAATATATACACACACATAAATATATACA [CACACA_site8573] | 9.9 ± 0.085 |
| AAGGGGTAAAGAAAAACACACAAAAAATAAAAATAT [CACACA_site361] | 10.2 ± 0.35 |
| CGTATTTATATAATTACACACCATATTATAATTATT [CACACA_site3760] | 10 ± 0.16 |
| CCAAAAAAAAAAAAAAGTACATAAAAACAAGAGAAT [XGTACX_site3037] | 11.5 ± 0.9 |
| AATTAAAAAAAATACACACACACATACACATATATA [CACACA_site3298] | 10.2 ± 0.22 |
| TAGAAGCATGGACACACACACATACATACCCATACA [CACACA_site4916] | 10.9 ± 0.58 |
| TTATTTTTCCGGAATAGTACATAGACGCAGATATAA [XGTACX_site6356] | 11.2 ± 0.68 |
| ATTAACTATCATAACACACACAGTAGACATATTTTT [CACACA_site1822] | 9.995 ± 0.078 |
| AAATCATTTAAGAACACACAAATATTTCCATTAAAT [CACACA_site6808] | 10.1 ± 0.11 |
| AAGATAATATTTTCTTGTACGCATGCACATACAAAT [XGTACX_site7181] | 11.6 ± 1.1 |
| CTTTTCTCCCTCCATAGTACAATTATAAAAATATAT [XGTACX_site3090] | 10.7 ± 0.63 |
| ATGCAAAGTTTATAAAGTACATAAGTCAAAATAAAA [XGTACX_site1441] | 11.1 ± 0.67 |
| TCTATATCTTTCAACACACAAATTTTTTTTTCCATC [CACACA_site4238] | 9.95 ± 0.099 |
